{"source": "the supplement of paper PMC3334620", "note": "Whole data set: some 33,000 sequences, median “E-score (-0.5 to 0.5)” near -0.056, cut for the highest 2% near 0.38. Some of the results follow."}
{"target": "Stb4 (UniProt P50104)", "assay": "PBM E-score (8-mer binding enrichment) (E-score (-0.5 to 0.5)); higher = stronger / more preferred TF binding; most listed sequences are background and not binding sites", "conditions": "protein concentration: 200 nM; construct: GST-DNA-binding domain", "outline": "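Full-length yeast transcription factors or their DNA-binding domains, GST-tagged and expressed with PURExpress, were applied at about 100-200 nM to universal all-10-mer Agilent arrays. These arrays had been made double-stranded by primer extension on fresh or once-stripped slides. Detection used fluorescent anti-GST, normalisation used masliner, and E-scores for ungapped eight-base words pooled with reverse complements came from the Universal PBM Analysis Suite.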"}
{"sequence": "TATGGCCA", "PBM E-score": -0.103}
{"sequence": "AGTCGACA", "PBM E-score": -0.129}
{"sequence": "CTTAACTC", "PBM E-score": 0.0687}
{"sequence": "GGCGATGA", "PBM E-score": -0.07}
{"sequence": "CGGCCAGC", "PBM E-score": 0.0702}
{"sequence": "AGCCCGAG", "PBM E-score": 0.231}
{"sequence": "AGAGCTCT", "PBM E-score": -0.0781}
{"sequence": "ACCAGCAC", "PBM E-score": -0.234}
{"sequence": "CCAAGCCG", "PBM E-score": 0.0562}
{"sequence": "CCCAGAGC", "PBM E-score": -0.299}
{"sequence": "GGCATACA", "PBM E-score": 0.0596}
{"sequence": "ACAGTCAC", "PBM E-score": -0.217}
{"sequence": "TAAGTTGA", "PBM E-score": -0.103}
{"sequence": "ACTTCCCT", "PBM E-score": -0.0362}
{"sequence": "CAGGCGTA", "PBM E-score": -0.127}
{"sequence": "GAGTGCCC", "PBM E-score": -0.138}
{"sequence": "GGTTCACA", "PBM E-score": -0.0832}
{"sequence": "ATCCGCGA", "PBM E-score": 0.247}
{"sequence": "AAGGTATA", "PBM E-score": -0.0756}
{"sequence": "TAAGCGCA", "PBM E-score": -0.196}
{"sequence": "ACCAATGG", "PBM E-score": -0.0211}
{"sequence": "CACCCACC", "PBM E-score": 0.0372}
{"sequence": "CCCCAGAA", "PBM E-score": -0.0466}
{"sequence": "GCCTACCA", "PBM E-score": -0.123}
{"sequence": "ATAATGAG", "PBM E-score": -0.184}
{"sequence": "CACACCTG", "PBM E-score": -0.179}
{"sequence": "AGGCACGG", "PBM E-score": 0.17}
{"sequence": "CTCAGTTC", "PBM E-score": -0.172}
{"sequence": "AGATTGAT", "PBM E-score": -0.0377}
{"sequence": "GCATAGTA", "PBM E-score": -0.0527}
{"sequence": "AAGACGTG", "PBM E-score": -0.0373}
{"sequence": "CATGTTGA", "PBM E-score": 0.0457}
{"sequence": "GCCGTCTA", "PBM E-score": 0.0371}
{"sequence": "ATCTGTCG", "PBM E-score": 0.139}
{"sequence": "CCATGCTA", "PBM E-score": -0.161}
{"sequence": "ATCCCTTA", "PBM E-score": -0.282}
{"sequence": "TCTTCAAA", "PBM E-score": -0.158}
{"sequence": "GTAACAAC", "PBM E-score": -0.0132}
{"sequence": "AAGTCTTA", "PBM E-score": -0.205}
{"sequence": "GCTAACAA", "PBM E-score": -0.0834}
{"sequence": "GGCGTGCA", "PBM E-score": -0.0222}
{"sequence": "TACACACA", "PBM E-score": -0.0626}
{"sequence": "CTAACAAA", "PBM E-score": -0.197}
{"sequence": "GTGCATGA", "PBM E-score": -0.101}
{"sequence": "CTCATCGC", "PBM E-score": -0.127}
{"sequence": "CGTCGATC", "PBM E-score": 0.0907}
{"sequence": "ACCATAGA", "PBM E-score": -0.0437}
{"sequence": "AACCAGTA", "PBM E-score": -0.0318}
{"sequence": "AAACTGAT", "PBM E-score": -0.121}
{"sequence": "GTGCAACA", "PBM E-score": -0.127}
{"sequence": "TACCCTAA", "PBM E-score": -0.238}
{"sequence": "AGGTTTAT", "PBM E-score": 0.0868}
{"sequence": "GTGTGATA", "PBM E-score": 0.0375}
{"sequence": "CCTGTGCG", "PBM E-score": -0.126}
{"sequence": "CAACTTAA", "PBM E-score": -0.135}
{"sequence": "CGATGTTA", "PBM E-score": 0.0139}
{"sequence": "AGTAGAAA", "PBM E-score": 0.0591}
{"sequence": "CACTTACC", "PBM E-score": 0.109}
{"sequence": "GAAGTAAC", "PBM E-score": 0.0744}
{"sequence": "TGCCATAA", "PBM E-score": -0.107}
{"sequence": "CGGGGAAA", "PBM E-score": 0.263}
{"sequence": "GTCTGGAA", "PBM E-score": -0.201}
{"sequence": "GACGTTAC", "PBM E-score": -0.0517}
{"sequence": "AAGGAGCG", "PBM E-score": -0.22}
{"sequence": "AGGGTACC", "PBM E-score": -0.112}
{"sequence": "GCGACATA", "PBM E-score": -0.237}
{"sequence": "AAGATGGC", "PBM E-score": -0.115}
{"sequence": "AATTCACC", "PBM E-score": 0.111}
{"sequence": "GATATCCC", "PBM E-score": 0.216}
{"sequence": "CAATGTGC", "PBM E-score": 0.00847}
{"sequence": "GATATGCA", "PBM E-score": 0.0512}
{"sequence": "ACGGATCC", "PBM E-score": 0.352}
{"sequence": "ATGATCGA", "PBM E-score": -0.0115}
{"sequence": "AGTGAGAA", "PBM E-score": -0.0836}
{"sequence": "GCTCGCTA", "PBM E-score": -0.166}
{"sequence": "AGTACCAT", "PBM E-score": -0.115}
{"sequence": "ATAGGAGG", "PBM E-score": -0.228}
{"sequence": "TGGAATAA", "PBM E-score": 0.072}
{"sequence": "CAGACATG", "PBM E-score": -0.18}
{"sequence": "AGCTACCC", "PBM E-score": 0.0422}
{"sequence": "ATTATGCC", "PBM E-score": 0.102}
{"sequence": "ACAACCGA", "PBM E-score": 0.316}
{"sequence": "CGACCGTC", "PBM E-score": -0.0817}
{"sequence": "AGCGCGCG", "PBM E-score": -0.156}
{"sequence": "AATTCACT", "PBM E-score": -0.0731}
{"sequence": "ATCCTCAC", "PBM E-score": -0.0216}
{"sequence": "ATTGAAGA", "PBM E-score": -0.16}
{"sequence": "ACAGTCCT", "PBM E-score": -0.338}
{"sequence": "AAACCTCG", "PBM E-score": 0.17}
{"sequence": "TCGCACCA", "PBM E-score": -0.0752}
{"sequence": "CGCACGGA", "PBM E-score": 0.326}
{"sequence": "GAGATTAC", "PBM E-score": 0.196}
{"sequence": "CTACACCC", "PBM E-score": 0.057}
{"sequence": "CGGTCGCC", "PBM E-score": 0.113}
{"sequence": "GCGGCCAC", "PBM E-score": -0.125}
{"sequence": "TTACCCAA", "PBM E-score": -0.217}
{"sequence": "ACCACACT", "PBM E-score": -0.0748}
{"sequence": "CGGTATCC", "PBM E-score": 0.247}
{"sequence": "CTGAGGGC", "PBM E-score": -0.361}
{"sequence": "ATAAATAT", "PBM E-score": 0.0712}
{"sequence": "GACGAAGA", "PBM E-score": -0.0979}
{"sequence": "ATAATTGA", "PBM E-score": -0.0432}
{"sequence": "TAGCTTGA", "PBM E-score": -0.109}
{"sequence": "CCCTCGCG", "PBM E-score": 0.0204}
{"sequence": "TAGTGCGA", "PBM E-score": -0.0885}
{"sequence": "CGTGTAAC", "PBM E-score": -0.0163}
{"sequence": "ATCCCTCC", "PBM E-score": 0.129}
{"sequence": "ACCTCGGC", "PBM E-score": 0.415}
{"sequence": "ACAGTGCC", "PBM E-score": 0.145}
{"sequence": "GACTTAGC", "PBM E-score": -0.14}
{"sequence": "ACTTGTAG", "PBM E-score": -0.0622}
{"sequence": "TCCTCGAA", "PBM E-score": -0.296}
{"sequence": "GAAAATTC", "PBM E-score": 0.144}
{"sequence": "ATCCGCAC", "PBM E-score": 0.37}
{"sequence": "CCATAAAG", "PBM E-score": -0.183}
{"sequence": "AGACGCAT", "PBM E-score": -0.0866}
{"sequence": "ATCTTGCC", "PBM E-score": -0.0102}
{"sequence": "GGATACAC", "PBM E-score": 0.196}
{"sequence": "CACAATCA", "PBM E-score": -0.0537}
{"sequence": "CTAGTTTC", "PBM E-score": 0.147}
{"sequence": "GAACCGCC", "PBM E-score": 0.0632}
{"sequence": "TCCCCGGA", "PBM E-score": 0.301}
{"sequence": "CGTTCGCC", "PBM E-score": 0.0826}
{"sequence": "CAGGGGAA", "PBM E-score": -0.0991}
{"sequence": "CGTAAGGC", "PBM E-score": -0.197}
{"sequence": "CTGATAAC", "PBM E-score": -0.12}
{"sequence": "ATCTAAAA", "PBM E-score": 0.0488}
{"sequence": "CGCACTCC", "PBM E-score": -0.0375}
{"sequence": "AATTTTTC", "PBM E-score": 0.153}
{"sequence": "ACCCGAAT", "PBM E-score": 0.425}
{"sequence": "ACTGACTG", "PBM E-score": -0.092}
{"sequence": "TAATACTA", "PBM E-score": 0.0864}
{"sequence": "AACGGACA", "PBM E-score": 0.0833}
{"sequence": "AGGCGTAC", "PBM E-score": -0.177}
{"sequence": "ACGGAGCC", "PBM E-score": 0.248}
{"sequence": "CCTAATGC", "PBM E-score": -0.332}
{"sequence": "GACGAGGC", "PBM E-score": -0.0506}
{"sequence": "TCTTCCAA", "PBM E-score": -0.0347}
{"sequence": "TAGCCACA", "PBM E-score": -0.126}
{"sequence": "AACACCTT", "PBM E-score": -0.00623}
{"sequence": "AGTAGACT", "PBM E-score": -0.143}
{"sequence": "GACGTTCC", "PBM E-score": 0.115}
{"sequence": "GAATACTA", "PBM E-score": 0.0368}
{"sequence": "ATAGGTTA", "PBM E-score": 0.0289}
{"sequence": "TGGGGAAA", "PBM E-score": -0.111}
{"sequence": "CGGTCCTA", "PBM E-score": 0.0807}
{"sequence": "ACATTGCT", "PBM E-score": -0.233}
{"sequence": "CTTGTTGA", "PBM E-score": -0.107}
{"sequence": "AATTCTAA", "PBM E-score": 0.0655}
{"sequence": "AAACATCG", "PBM E-score": -0.00353}
{"sequence": "CAGCATAA", "PBM E-score": -0.185}
{"sequence": "CCTAAATC", "PBM E-score": 0.0193}
{"sequence": "CATAAAAA", "PBM E-score": -0.144}
{"sequence": "GGATTCAA", "PBM E-score": -0.0277}
{"sequence": "GCCCATCC", "PBM E-score": 0.0741}
{"sequence": "AATCGGCT", "PBM E-score": 0.344}
{"sequence": "CAAAGTTC", "PBM E-score": 0.0445}
{"sequence": "CTTATTAA", "PBM E-score": 0.0696}
{"sequence": "AGTATTCG", "PBM E-score": 0.147}
{"sequence": "CAGGGCAG", "PBM E-score": -0.114}
{"sequence": "CATTGTGC", "PBM E-score": -0.178}
{"sequence": "TACTAACA", "PBM E-score": -0.177}
{"sequence": "CGGCGGCC", "PBM E-score": 0.0617}
{"sequence": "CAGGAGAA", "PBM E-score": -0.107}
{"sequence": "AATCCGTG", "PBM E-score": 0.172}
{"sequence": "CGTGCGGA", "PBM E-score": 0.151}
{"sequence": "CTAGGTTC", "PBM E-score": 0.126}
{"sequence": "GGTACACA", "PBM E-score": -0.0472}
{"sequence": "CACAGATG", "PBM E-score": -0.0862}
{"sequence": "ACACCGCG", "PBM E-score": -0.0623}
{"sequence": "GAACCGGC", "PBM E-score": 0.262}
{"sequence": "CCTTATCA", "PBM E-score": -0.109}
